Laboratory results from PubChem BioAssay AID540317 (National Center for Advancing Translational Sciences (NCATS), 2011).
About 2,200 (0.56%) of roughly 390,000 compounds were called active. This list was built around the results that the source calls inconclusive (neither active nor inactive); the mix of calls is not that of the screen. The call rests on the fitted dose curve; in most records, active means well fitted inhibition curve with a large enough effect; inconclusive means small, poorly fitted or top-dose-only effect; inactive means no such curve, though single readings can be large or run the other way. Where the call is inconclusive, the potency comes from a doubtful curve fit.

Molecular target: Chromobox protein homolog 1 (Homo sapiens) (UniProt P83916)
UniProt P83916, sequence (P83916 whole entry, looked up): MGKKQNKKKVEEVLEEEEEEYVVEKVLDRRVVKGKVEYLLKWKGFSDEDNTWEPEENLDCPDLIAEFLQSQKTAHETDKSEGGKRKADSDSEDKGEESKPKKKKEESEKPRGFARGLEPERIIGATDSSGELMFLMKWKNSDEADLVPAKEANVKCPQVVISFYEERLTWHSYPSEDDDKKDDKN
Test: HTS for Inhibitors of HP1-beta Chromodomain Interactions with Methylated Histone Tails; further: nearly all actives have a fitted effect of over 70% in size
Conditions: AlphaScreen HP1-beta / biotin-H3K9me3 peptide binding; series mostly up to 114 µM
Text: As our understanding of epigenetics expands, it is becoming clear that players in this field are potential targets for drug development. This area of epigenetic therapy has established applications for the treatment of cancer and neurological diseases. We have been involved in this field for a number of years and have performed high-throughput screens to identify the first small molecule inhibitors of protein methyltransferases. These methyltransferases target multiple substrates, and thus regulate many arms of an epigenetic pathway. The methylation of different substrates often generates docking sites for effector proteins that harbor binding domains (chromo, tudor, PHD, MBT and ANK repeats). It has been proposed that the binding sites generated for different proteins by these post-translational modifcations mediate downstream effects on chromatin. Consistent with this theory, di- and tri-methylation of histone H3K9 facilitates the binding of heterochromatin protein HP1. The HP1 protein harbors a chromodomain that is responsible for the methyl-dependent interaction between HP1 and lysine 9 of histone H3. HP1 was first described in flies as a heterochromatin associated protein that can regulate gene silencing. It harbors a chromodomain that binds H3K9me3. In addition, it harbors a chromoshadow domain that interacts with a large number of proteins that are involved in heterochromatin formation and gene repression. There are three highly related HP1 isoforms. All three variants are associated with pericentric heterochromatin and it is not clear whether they have specific or redundant functions. MPP8 is also involved in the repression of gene in euchromatic regions (unpublished data) and like HP1 its chromodomain binds H3K9me3. MPP8 harbors an ankyrin repeat region that is likely involved in binding and recruiting interacting proteins with transcriptional repressive function, much like the chromoshadow domain of HP1 does. We hypothesize that by inhibiting specific protein-protein interactions we will be able to develop compounds that block a single arm of an epigenetic pathway. The specificity attained by blocking a single protein-protein interaction will be far greater than that attained by blocking the enzyme that regulates one of many interactions. Low-affinity protein-protein interactions (Kd in the single- to double-digit micromolar range) such as those discussed here have been very difficult to assay by traditional techniques such as fluorescence polarization or fluorescence resonance energy transfer. We have developed a sensitive chemiluminescence-based assay (Quinn, et al. 2009), which serves as the starting point for this project. The following is a validation assay to identify lead compounds that can block methyl-dependent protein-protein interactions (specifically HP1-beta), which can be used as probes to analyze these methyl-driven interactions and perhaps even developed into targeted epigenetic therapies. NIH Chemical Genomics Center [NCGC] NIH Molecular Libraries Probe Centers Network [MLPCN] MLPCN Grant: DA031087 Assay Submitter (PI): Mark Bedford, University of Texas, Medical Anderson Cancer Center, TX
To each well, 2 uL of HP1-beta protein (final 50 nM) and 1 uL biotinylated histone peptide trimethylated at Lys9 [b-H3(1-18)K9me3] (final 50 nM) was added in 1x PBS buffer, pH 7.4, containing 0.01% Tween-20 using a nanoliter dispenser. Formation of a protein-peptide complex proceeded at room temperature for 30 min. A Kalypsys pin-tool was employed to transfer 23 nL of library compound solution in DMSO to each well. Aurintricarboxylic acid (ATA) was used as an intraplate control with a 12-point titration in duplicate. Following a 30 min incubation of the protein-peptide complex with compounds at room temperature, a mixture of 40 ug/mL each streptavidin-coated donor and nickel chelate acceptor AlphaScreen beads (final 10 ug/mL) was added in a 1 uL dispense for a final volume of 4 uL. […]
Potency means the concentration at half of the fitted maximal effect; tags describe the fitted curve by direction and shape.

| SMILES | Potency |
| --- | --- |
| CCc1nn(CC(=O)NCCc2ccc(OC)cc2OC)c(=O)c2cc3c(OC)cccc3n12 | inactive |
| O=S(=O)(c1ccc(NC(=S)NCc2ccncc2)cc1)N1CCCCC1 | inactive |
| O=C(c1ccc(Cn2cc([N+](=O)[O-])cn2)o1)N1CCCC1 | inconclusive: 89.1 µM [inhibitor, single point] |
| O=C(O)c1cc(=S)nc[nH]1 | inconclusive: 7.94 µM [inhibitor, full curve, poor fit] |
| CN(C)c1ccc(C(CNS(=O)(=O)c2ccc3ccccc3c2)N2CCOCC2)cc1 (stereo not given) | inconclusive: 70.8 µM [inhibitor, single point] |
| COc1ccc(C2C(C(=O)Nc3cc(C)on3)c3ccccc3C(=O)N2C)cc1 (stereo not given) | inconclusive: 39.8 µM [inhibitor, partial curve, poor fit] |
| COc1ccc2c(c1)Cc1sc(NC(=O)c3cccs3)nc1-2 | inactive |
| COCCCNCCOc1cc(C(C)C)ccc1C | inconclusive: 79.4 µM [inhibitor, single point] |
| CC1CN(c2nc(N(C)c3ccccc3)nc(N)c2[N+](=O)[O-])CC(C)O1 (stereo not given) | inconclusive: 79.4 µM [inhibitor, partial curve] |
| CC1CN(CCOc2ccc(Cl)c(Cl)c2)CC(C)O1 (stereo not given) | inconclusive: 14.1 µM [inhibitor, full curve, poor fit] |
| Cc1ccc2cc(NC(=O)c3ccc(C(C)(C)C)cc3)ccc2n1 | inactive |
| Brc1ccccc1OCCNCc1ccccc1 | inconclusive: 50.1 µM [inhibitor, partial curve, poor fit] |
| FC(F)(F)c1cccc(N/N=C/c2ccccc2)c1 | inconclusive: 35.5 µM [inhibitor, single point] |
| CN(C)c1ccc(C=C2SC(=S)NC2=O)cc1 | inactive |
| O=[N+]([O-])c1ccccc1/C=C\C=N\N1CCN(c2ccccc2)CC1 | inconclusive: 12.6 µM [inhibitor, full curve] |
| O=C(OCC(O)CO)c1ccccc1Nc1ccnc2cc(Cl)ccc12 (stereo not given) | inactive |
| Cc1cnc([N+](=O)[O-])n1CCOC(=O)NC(=O)c1ccccc1Cl | inconclusive: 89.1 µM [inhibitor, single point] |
| CCOc1ccc(-c2nc(C#N)c(N3CCN(Cc4ccccc4)CC3)o2)cc1 | inconclusive: 10 µM [inhibitor, full curve] |
| O=C(CN1CCN(c2ccc(O)cc2)CC1)NCC(=O)Nc1ccc(F)c(F)c1F | inconclusive: 39.8 µM [inhibitor, partial curve] |
| CCc1ccccc1N(C)C(=O)c1cc2c(Cl)nc3ccc(C)cc3c2s1 | inactive |
| O=C1Nc2ccc(Br)cc2/C1=C/C(=O)c1ccccc1 | inconclusive: 28.2 µM [inhibitor, partial curve] |
| Cc1ccc(C)c(S(=O)(=O)N2CCCOC2CNC(=O)C(=O)NCCCn2ccnc2)c1 (stereo not given) | inconclusive: 35.5 µM [inhibitor, partial curve, poor fit] |
| O=C(CN1C(=O)C2CCCCC2C1=O)Nc1ccccc1N1CCCC1 (stereo not given) | inactive |

| SMILES | Potency |
| --- | --- |
| Cc1ccccc1Nc1c(-c2ccc(O)cc2)nc2c(C)cccn12 | inconclusive: 15.8 µM [inhibitor, partial curve, poor fit] |
| Cc1nc2sc(C(c3ccco3)N3CCN(c4cccc(Cl)c4)CC3)c(O)n2n1 (stereo not given) | inactive |
| O=C(O)c1ccc(Oc2cc(Oc3ccc(C(=O)O)cc3)cc([N+](=O)[O-])c2)cc1 | inactive |
| COc1ccc(N2CCN(C(c3cccc(OC)c3OC)c3nnnn3C3CCCC3)CC2)cc1 (stereo not given) | inconclusive: 39.8 µM [inhibitor, partial curve] |
| Cc1ccc(Sc2ccc(CN3CCCCC3)cc2[N+](=O)[O-])cc1 | inconclusive: 39.8 µM [inhibitor, partial curve, poor fit] |
| O=C(O)CSc1nc2sc3c(c2c(=O)n1Cc1ccccc1)CCCCC3 | inactive |
| Cc1ccc([N+](=O)[O-])cc1NC(=O)CCSc1ccc(Cl)cc1 | inactive |
| COc1ccc(C(=O)Oc2c(OC)cc(C(=S)N3CCOCC3)cc2OC)cc1OC | inconclusive: 17.8 µM [inhibitor, full curve] |
| COc1cccc(NC2=CC(c3ccc(C(C)C)cc3)N(c3cccc(OC)c3)C2=O)c1 (stereo not given) | inactive |
| CCC1(CC)NC(=O)N(CC(=O)NC(=O)NCc2ccccc2)C1=O | inconclusive: 89.1 µM [inhibitor, partial curve, poor fit] |
| CCc1c(C)sc(NC(=O)Cc2ccccc2C)c1C(=O)N1CCOCC1 | inconclusive: 50.1 µM [inhibitor, partial curve, poor fit] |
| COc1ccc(NC(=O)c2nn(C)c3c2CSc2ccc(C)cc2-3)cc1OC | inconclusive: 39.8 µM [inhibitor, partial curve] |
| O=C(c1ccc(C#Cc2ccccc2)o1)N1CCN(c2ccccn2)CC1 | inconclusive: 20 µM [inhibitor, partial curve, poor fit] |
| CC(=O)N1CCc2c(sc3c2c(=O)n(-c2ccccc2)c(=O)n3Cc2ccccc2Cl)C1 | inconclusive: 39.8 µM [inhibitor, single point] |
| CCOc1ccc(C(CC(=O)O)NS(=O)(=O)c2ccc(C)cc2)cc1OC (stereo not given) | inactive |
| C1=CC2CC1CC2CN1CCN(Cc2ccccc2)CC1 (stereo not given) | inconclusive: 28.2 µM [inhibitor, partial curve, poor fit] |
| CCc1cccc(C)c1NS(=O)(=O)c1ccc2c(c1)NC(=O)C(C)C(=O)N2 (stereo not given) | inactive |
| O=C(CSc1cn[nH]n1)Nc1cccc(C(=O)O)c1 | active: 17.8 µM |
| CN1CCN(S(=O)(=O)c2cccc(C(=O)Nc3ccccc3N3CCCC3)c2)CC1 | inactive |
| Brc1ccccc1OCCN1CCOCC1 | inconclusive: 56.2 µM [inhibitor, partial curve, poor fit] |
| CCOc1ccc(S(=O)(=O)Nc2nc3ccccc3nc2Nc2ccc(N3CCOCC3)cc2)cc1 | inconclusive: 4.47 µM [inhibitor, full curve, poor fit] |
| COc1ccc(CC(=O)NCC(c2ccc(N(C)C)cc2)N2CCOCC2)cc1OC (stereo not given) | inactive |
